Residue numbers refer to the chain shown, from its start. Some of the results follow.

Here are results for 31 molecules from article PMC9911399, “Two distinct binding modes provide the RNA-binding protein RbFox with extraordinary sequence specificity”.

Sequences and labels used below:
B1: AUAGCGG (DNA:RNA)
RNA: GGGAGACCGGAAUUCAGAUUGUCCAUAGCGGUUAAAUCCCGUCGUAGCCACCA
DNA 1: CAATCTGAATTCCGGTCTCCC
DNA 2: TGGTGGCTACGACGGGATT
B2: UUUAUGG (DNA:RNA)
RNA: B1 RNA with A25U, A27U, G28A, C29U
DNA 1: CAATCTGAATTCCGGTCTCCC
DNA 2: TGGTGGCTACGACGGGATT
B3: CAUACGG (DNA:RNA)
RNA: B1 RNA with A25C, U26A, A27U, G28A
DNA 1: CAATCTGAATTCCGGTCTCCC
DNA 2: TGGTGGCTACGACGGGATT
B4: AUUGCGA (DNA:RNA)
RNA: B1 RNA with A27U, G31A
DNA 1: CAATCTGAATTCCGGTCTCCC
DNA 2: TGGTGGCTACGACGGGATT
B5: AGAGUUG (DNA:RNA)
RNA: B1 RNA with U26G, C29U, G30U
DNA 1: CAATCTGAATTCCGGTCTCCC
DNA 2: TGGTGGCTACGACGGGATT
B6: CGAGCGC (DNA:RNA)
RNA: B1 RNA with A25C, U26G, G31C
DNA 1: CAATCTGAATTCCGGTCTCCC
DNA 2: TGGTGGCTACGACGGGATT
B7: GCAGCCG (DNA:RNA)
RNA: B1 RNA with A25G, U26C, G30C
DNA 1: CAATCTGAATTCCGGTCTCCC
DNA 2: TGGTGGCTACGACGGGATT
B8: GUAUGUC (DNA:RNA)
RNA: B1 RNA with A25G, G28U, C29G, G30U, G31C
DNA 1: CAATCTGAATTCCGGTCTCCC
DNA 2: TGGTGGCTACGACGGGATT
B9: AUAGUUU (DNA:RNA)
RNA: B1 RNA with C29U, G30U, G31U
DNA 1: CAATCTGAATTCCGGTCTCCC
DNA 2: TGGTGGCTACGACGGGATT
B10: AGAUCGU (DNA:RNA)
RNA: B1 RNA with U26G, G28U, G31U
DNA 1: CAATCTGAATTCCGGTCTCCC
DNA 2: TGGTGGCTACGACGGGATT
B11: AAAGAUA (DNA:RNA)
RNA: B1 RNA with U26A, C29A, G30U, G31A
DNA 1: CAATCTGAATTCCGGTCTCCC
DNA 2: TGGTGGCTACGACGGGATT
B12: UUCGCGG (DNA:RNA)
RNA: B1 RNA with A25U, A27C
DNA 1: CAATCTGAATTCCGGTCTCCC
DNA 2: TGGTGGCTACGACGGGATT
B13: AUCACAA (DNA:RNA)
RNA: B1 RNA with A27C, G28A, G30A, G31A
DNA 1: CAATCTGAATTCCGGTCTCCC
DNA 2: TGGTGGCTACGACGGGATT
B14: CUUCUAU (DNA:RNA)
RNA: B1 RNA with A25C, A27U, G28C, C29U, G30A, G31U
DNA 1: CAATCTGAATTCCGGTCTCCC
DNA 2: TGGTGGCTACGACGGGATT
B15: AUUUGCA (DNA:RNA)
RNA: B1 RNA with A27U, G28U, C29G, G30C, G31A
DNA 1: CAATCTGAATTCCGGTCTCCC
DNA 2: TGGTGGCTACGACGGGATT
B16: UCUGUAU (DNA:RNA)
RNA: B1 RNA with A25U, U26C, A27U, C29U, G30A, G31U
DNA 1: CAATCTGAATTCCGGTCTCCC
DNA 2: TGGTGGCTACGACGGGATT
B17: GAGCUGA (DNA:RNA)
RNA: B1 RNA with A25G, U26A, A27G, G28C, C29U, G31A
DNA 1: CAATCTGAATTCCGGTCTCCC
DNA 2: TGGTGGCTACGACGGGATT
B18: UUACGUC (DNA:RNA)
RNA: B1 RNA with A25U, G28C, C29G, G30U, G31C
DNA 1: CAATCTGAATTCCGGTCTCCC
DNA 2: TGGTGGCTACGACGGGATT
B19: UCUUUAA (DNA:RNA)
RNA: GGGAGACCGGAAUUCAGAUUGUCCUCUUUAAUUAAAUCCCGUCGUAGCCACCA
DNA 1: CAATCTGAATTCCGGTCTCCC
DNA 2: TGGTGGCTACGACGGGATT
B20: GCUCAGA (DNA:RNA)
RNA: B19 RNA with U25G, U28C, U29A, A30G
DNA 1: CAATCTGAATTCCGGTCTCCC
DNA 2: TGGTGGCTACGACGGGATT
B21: ACCCCCU (DNA:RNA)
RNA: B1 RNA with U26C, A27C, G28C, G30C, G31U
DNA 1: CAATCTGAATTCCGGTCTCCC
DNA 2: TGGTGGCTACGACGGGATT
B22: GGUUGUG (DNA:RNA)
RNA: B19 RNA with U25G, C26G, U29G, A30U, A31G
DNA 1: CAATCTGAATTCCGGTCTCCC
DNA 2: TGGTGGCTACGACGGGATT
B23: GACCACU (DNA:RNA)
RNA: GGGAGACCGGAAUUCAGAUUGUCCGACCACUUUAAAUCCCGUCGUAGCCACCA
DNA 1: CAATCTGAATTCCGGTCTCCC
DNA 2: TGGTGGCTACGACGGGATT
B24: GCCACGA (DNA:RNA)
RNA: B1 RNA with A25G, U26C, A27C, G28A, G31A
DNA 1: CAATCTGAATTCCGGTCTCCC
DNA 2: TGGTGGCTACGACGGGATT
B25: AAAAAAG (DNA:RNA)
RNA: B1 RNA with U26A, G28A, C29A, G30A
DNA 1: CAATCTGAATTCCGGTCTCCC
DNA 2: TGGTGGCTACGACGGGATT
B26: CAUCUGC (DNA:RNA)
RNA: B23 RNA with G25C, C27U, A29U, C30G, U31C
DNA 1: CAATCTGAATTCCGGTCTCCC
DNA 2: TGGTGGCTACGACGGGATT
B27: UUGUCCG (DNA:RNA)
RNA: B1 RNA with A25U, A27G, G28U, G30C
DNA 1: CAATCTGAATTCCGGTCTCCC
DNA 2: TGGTGGCTACGACGGGATT
B28: AACAGCC (DNA:RNA)
RNA: B23 RNA with G25A, C28A, A29G, U31C
DNA 1: CAATCTGAATTCCGGTCTCCC
DNA 2: TGGTGGCTACGACGGGATT
B29: GAGUCAC (DNA:RNA)
RNA: B23 RNA with C27G, C28U, A29C, C30A, U31C
DNA 1: CAATCTGAATTCCGGTCTCCC
DNA 2: TGGTGGCTACGACGGGATT
B30: UUAGCGU (DNA:RNA)
RNA: B1 RNA with A25U, G31U
DNA 1: CAATCTGAATTCCGGTCTCCC
DNA 2: TGGTGGCTACGACGGGATT
B31: UGUAUUA (DNA:RNA)
RNA: B19 RNA with C26G, U28A, A30U
DNA 1: CAATCTGAATTCCGGTCTCCC
DNA 2: TGGTGGCTACGACGGGATT

This assay addresses T1, RBFOX1 RRM (Homo sapiens, UniProt Q9NWB1 109-208).
T1 sequence: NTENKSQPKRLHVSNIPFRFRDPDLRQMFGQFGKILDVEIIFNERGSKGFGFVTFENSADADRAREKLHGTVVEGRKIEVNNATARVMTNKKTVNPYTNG
Nature of the assay: EMSA; HiTS-Eq, 1 nM pool, 10 min; buffer printed only for the single-RNA assays: 10 mM Tris pH 7.5, 150 mM NaCl, 3.4 mM EDTA, 0.001% NP-40, 30 C. The following applies: tags: His6 N-terminal (pET28a); label: 5' 32P. The gist of the method:
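Relative association constants, normalised to the cognate motif, were derived by comparing read counts of each RNA species with those of the control reaction. The RNA sequenced was the free fraction, separated by 8% native PAGE after a 10 min equilibration in 50 µL of 1 nM 5′-radiolabelled RNA (7 randomized nucleotides) with increasing concentrations of purified wild-type or mutant RbFox RRM.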
(Mobility shift assays separate free from complexed probe on a gel.)
On to B1, for which the binding signal is 0.00769 KA relative to UGCAUGU.

Take B2: the binding signal is 0.00508 KA relative to UGCAUGU.

As for B3, the binding signal was 0.00363 KA relative to UGCAUGU.

Consider B4, for which the binding signal was 0.0121 KA relative to UGCAUGU.

For the molecule B5, the binding signal is 0.0122 KA relative to UGCAUGU.

Consider B6, for which the binding signal is 0.0134 KA relative to UGCAUGU.

Turning to B7, the binding signal was 0.0143 KA relative to UGCAUGU.

Regarding B8, the binding signal is 0.0124 KA relative to UGCAUGU.

On to B9, for which the binding signal was 0.00379 KA relative to UGCAUGU.

As to B10, the binding signal is 0.0126 KA relative to UGCAUGU.

For the molecule B11, the binding signal was 0.00121 KA relative to UGCAUGU.

As for B12, the binding signal was 0.00875 KA relative to UGCAUGU.

On to B13, for which the binding signal is 0.00119 KA relative to UGCAUGU.

For B14, the binding signal was 0.00211 KA relative to UGCAUGU.

For B15, the binding signal was 0.0153 KA relative to UGCAUGU.

Regarding B16, the binding signal is 0.0123 KA relative to UGCAUGU.

As to B17, the binding signal was 0.0196 KA relative to UGCAUGU.

With B18, the binding signal was 0.00945 KA relative to UGCAUGU.

B19: the binding signal is 0.00894 KA relative to UGCAUGU.

Turning to B20, the binding signal is 0.0132 KA relative to UGCAUGU.

As for B21, the binding signal was 0.00197 KA relative to UGCAUGU.

B22: the binding signal was 0.0164 KA relative to UGCAUGU.

B23: the binding signal is 0.00545 KA relative to UGCAUGU.

Consider B24, for which the binding signal was 0.0105 KA relative to UGCAUGU.

For B25, the binding signal is 0.00105 KA relative to UGCAUGU.

Regarding B26, the binding signal is 0.00886 KA relative to UGCAUGU.

As for B27, the binding signal is 0.0163 KA relative to UGCAUGU.

As for B28, the binding signal was 0.00359 KA relative to UGCAUGU.

On to B29, for which the binding signal is 0.0121 KA relative to UGCAUGU.

Take B30: the binding signal is 0.0154 KA relative to UGCAUGU.

As for B31, the binding signal was 0.00643 KA relative to UGCAUGU.
